Read counts are not given, so values of variants with three or more changes are uncertain.
B1: LINE1-full (parent)
chain: UACGUAGGUGGUUUUCCCCUGAUAGUGCUAAGGGGGCCUGGAAGUUUGGACUGGGCAGAGCUCAACACAGCGUGGCAAAGUGGCUGUGGCUAGACUGCCUCUCUGGAUUCCUCGUCACUCAGCAGGGCAUCUCUGAGAGAAAUGCC

Variants of: B1
Assay: self-cleavage, relative activity (ratio to wild type); higher = more cleavage; in vitro, sequencing; the parent is a self-cleaving ribozyme

Variant	self-cleavage
UACGUAGGUGGUUUUCCCCUGAUAGUGCUAAGGGGGCCUGGAAGUUUGGACUGGGCAGAGCUCAACACAGCGUGGCAAAGUGGCUGUGGCUAGACUGCCUCACUGGAUUCCCCGUCACUCAGCAGGGCAUCUCCGAGAGAAAUGCC [U102A U112C U134C]	1.5
UACGUAGGUGGUUUUCCCCUGAUAGUGCUAAGGGGGCCUGGAAGUUUGGACUGGGCAGAGCUCAACACAGCGUGGCAAAGUGGCUGUGGCUAGACUGCUUCUCUGGAUACCUCGUCACUCAGCAGGCCAUCUCUGAGAGAAAUGCC [C99U U109A G127C]	0.39
UACGUAGGUGGUUUUCCCCUGAUAGUGCUAAGGGGGCCUGGAAGUUUGGACUGGGCAGAGCUCAACACAGCGUGGCAAAGUGGCUGUGGCUAGACUGCCCCUCUGGAUUCCUCGUCACUCAGCAGGGCAUCUCUGAGGGAAGUGCC [U100C A138G A142G]	2.38
UACGUAGGUGGUUUUCCCCUGAUAGUGCUAAGGGGGCCUGGAAGUUUGGACUGGGCAGAGCUCAACACAGCGUGGCAAAGUGGCUGUGGCUAGACUGCCCCUCUGGAUUCCUCGUCACUCAGCAGGGCUUCUCUGAGAAAAAUGCC [U100C A129U G139A]	1.95
UACGUAGGUGGUUUUCCCCUGAUAGUGCUAAGGGGGCCUGGAAGUUUGGACUGGGCAGAGCUCAACACAGCGUGGCAAAGUGGCUGUGGCUAGACUGCCCCUCAGGAUUCCUCGUCACUCAGCAGGGCAUCUCUGUGAGAAAUGCC [U100C U104A A136U]	2.73
UACGUAGGUGGUUUUCCCCUGAUAGUGCUAAGGGGGCCUGGAAGUUUGGACUGGGCAGAGCUCAACACAGCGUGGCAAAGUGGCUGUGGCUAGACUGCUGCUCUGGAUUCCUCGUCACUCAGCAGGGCUUCUCUGAGAGAAAUGCC [C99U U100G A129U]	0.27
UACGUAGGUGGUUUUCCCCUGAUAGUGCUAAGGGGGCCUGGAAGUUUGGACUGGGCAGAGCUCAACACAGCGUGGCAAAGUGGCUGUGGCUAGACUGCCCCUCUGGUUUCCUCGUCACUCAGCCGGGCAUCUCUGAGAGAAGUGCC [U100C A107U A124C A142G]	1.53
UACGUAGGUGGUUUUCCCCUGAUAGUGCUAAGGGGGCCUGGAAGUUUGGACUGGGCAGAGCUCAACACAGCGUGGCAAAGUGGCUGUGGCUAGACCGCCUCUCUGGAUUCCUCGUCACUCAGCAGGGCAUCUCAGAGGGAAAUGCC [U96C U134A A138G]	0.07
UACGUAGGUGGUUUUCCCCUGAUAGUGCUAAGGGGGCCUGGAAGUUUGGACUGGGCAGAGCUCAACACAGCGUGGCAAAGUGGCUGUGGCUAGACUGCCCCUCUGGAUUCCUCGUCACUCAGCAGGGCAUCCCUGGGAGAAAUGCC [U100C U132C A136G]	1.25
UACGUAGGUGGUUUUCCCCUGAUAGUGCUAAGGGGGCCUGGAAGUUUGGACUGGGCAGAGCUCAACACAGCGUGGCAAAGUGGCUGUGGCUAGACGGCCUCUCUGGAUUCCUCGCCACUCAGCAGGGCAUCUCUGAGAGAAGUGCC [U96G U115C A142G]	0
UACGUAGGUGGUUUUCCCCUGAUAGUGCUAAGGGGGCCUGGAAGUUUGGACUGGGCAGAGCUCAACACAGCGUGGCAAAGUGGCUGUGGCUAGACUGCCACUCUGGAUUCCUCGUCACUCAGCAGGGCGUCUCUGAGAGAAACGCC [U100A A129G U143C]	0.19
UACGUAGGUGGUUUUCCCCUGAUAGUGCUAAGGGGGCCUGGAAGUUUGGACUGGGCAGAGCUCAACACAGCGUGGCAAAGUGGCUGUGGCUAGACUGCCCCUCUUGAUUCCUCGUCACUCAGCAGGGCAUCUCUGAGAGAAGUGCC [U100C G105U A142G]	1.71
UACGUAGGUGGUUUUCCCCUGAUAGUGCUAAGGGGGCCUGGAAGUUUGGACUGGGCAGAGCUCAACACAGCGUGGCAAAGUGGCUGUGGCUAGACUGCCCCUCUGGAUUCCUCGUCACUCAGCAGGGCAUCUCUGUGAGAAAUACC [U100C A136U G144A]	2.04
UACGUAGGUGGUUUUCCCCUGAUAGUGCUAAGGGGGCCUGGAAGUUUGGACUGGGCAGAGCUCAACACAGCGUGGCAAAGUGGCUGUGGCUAGACUGCAUCUCUGGACUCCUCGUCUCUCAGCAGGGCAUCUCUGAGAGAAAUGCC [C99A U108C A117U]	0.69
UACGUAGGUGGUUUUCCCCUGAUAGUGCUAAGGGGGCCUGGAAGUUUGGACUGGGCAGAGCUCAACACAGCGUGGCAAAGUGGCUGUGGCUAGACCGCCUCUCUGGAUUCCUCGUCACUCAGCAGGGCAUCCCUGAGAGAAACGCC [U96C U132C U143C]	0.14
UACGUAGGUGGUUUUCCCCUGAUAGUGCUAAGGGGGCCUGGAAGUUUGGACUGGGCAGAGCUCAACACAGCGUGGCAAAGUGGCUGUGGCUAGACUGCCCCUCUGGAUUCCUCGUCACUCAGCAGGACAACUCUGAGGGAAAUGCC [U100C G127A U130A A138G]	2.36
UACGUAGGUGGUUUUCCCCUGAUAGUGCUAAGGGGGCCUGGAAGUUUGGACUGGGCAGAGCUCAACACAGCGUGGCAAAGUGGCUGUGGCUAGACUGUCUCUCCGGAUUCCUCGUCACUCAGCAGGGCAUCUCUGAGAGUAAUGCC [C98U U104C A140U]	0.66
UACGUAGGUGGUUUUCCCCUGAUAGUGCUAAGGGGGCCUGGAAGUUUGGACUGGGCAGAGCUCAACACAGCGUGGCAAAGUGGCUGUGGCUAGACUGCCCCUCUAGAUUCUUCGUCACUCAGCGGGGCAUCUCUGAGAGAAAUGCC [U100C G105A C111U A124G]	1.49
UACGUAGGUGGUUUUCCCCUGAUAGUGCUAAGGGGGCCUGGAAGUUUGGACUGGGCAGAGCUCAACACAGCGUGGCAAAGUGGCUGUGGCUAGACUGCCCCUCUGGAUUCCUCGUCACUCAGCAGGGCGUCUCUGAGAGUAAUGCC [U100C A129G A140U]	0.57
UACGUAGGUGGUUUUCCCCUGAUAGUGCUAAGGGGGCCUGGAAGUUUGGACUGGGCAGAGCUCAACACAGCGUGGCAAAGUGGCUGUGGCUAGACUGCCCCUCUGGAUUCCCCGUCACCCAGUAGGGCAUCUCUGAGAGAAAUGCC [U100C U112C U119C C123U]	2.88

Variant	self-cleavage
UACGUAGGUGGUUUUCCCCUGAUAGUGCUAAGGGGGCCUGGAAGUUUGGACUGGGCAGAGCUCAACACAGCGUGGCAAAGUGGCUGUGGCUAGACUGCUUCUCUGGAUUCCUUGUCACUCAGCAGGGCAUCUCUGAGAGAGAUGCC [C99U C113U A141G]	0.5
UACGUAGGUGGUUUUCCCCUGAUAGUGCUAAGGGGGCCUGGAAGUUUGGACUGGGCAGAGCUCAACACAGCGUGGCAAAGUGGCUGUGGCUAGACUGCCCCUCUGGAUUCCUCGUCACCUAGCAGGGCAUCUCUGAGAGAAAUGCC [U100C U119C C120U]	1.03
UACGUAGGUGGUUUUCCCCUGAUAGUGCUAAGGGGGCCUGGAAGUUUGGACUGGGCAGAGCUCAACACAGCGUGGCAAAGUGGCUGUGGCUAGACUGCCUCACUGGAUUCCUCGUCACUCAGCAGGGCAUCACUGAGAGAAAAGCC [U102A U132A U143A]	1.05
UACGUAGGUGGUUUUCCCCUGAUAGUGCUAAGGGGGCCUGGAAGUUUGGACUGGGCAGAGCUCAACACAGCGUGGCAAAGUGGCUGUGGCUAGACUGCCCCUCUGGAUUCCUCGACACUCAGCAGGGCAUCUCCGAGAGAGAUGCC [U100C U115A U134C A141G]	1.84
UACGUAGGUGGUUUUCCCCUGAUAGUGCUAAGGGGGCCUGGAAGUUUGGACUGGGCAGAGCUCAACACAGCGUGGCAAAGUGGCUGUGGCUAGACUGCCCCUCUGGAUUCCUCGUCACUCAGCAGAGCAUCUCUGAGAGAAAUGUC [U100C G126A C145U]	1.63
UACGUAGGUGGUUUUCCCCUGAUAGUGCUAAGGGGGCCUGGAAGUUUGGACUGGGCAGAGCUCAACACAGCGUGGCAAAGUGGCUGUGGCUAGACUGCCCCUCUGGAUUCCUCGUCACUCAGCAGGGCAUCUCUGAGGGAGAUGCC [U100C A138G A141G]	2.18
UACGUAGGUGGUUUUCCCCUGAUAGUGCUAAGGGGGCCUGGAAGUUUGGACUGGGCAGAGCUCAACACAGCGUGGCAAAGUGGCUGUGGCUAGACUGCCCCUCUGGACUCCUCGUCACUCAGCAGGGCAUCUCUGAGGGAGAUGCC [U100C U108C A138G A141G]	1.67
UACGUAGGUGGUUUUCCCCUGAUAGUGCUAAGGGGGCCUGGAAGUUUGGACUGGGCAGAGCUCAACACAGCGUGGCAAAGUGGCUGUGGCUAGACUACCUCUCUGGAUUCCUCGUCUCUCAGCAGGGCGUCUCUGAGAGAAAUGCC [G97A A117U A129G]	0.17
UACGUAGGUGGUUUUCCCCUGAUAGUGCUAAGGGGGCCUGGAAGUUUGGACUGGGCAGAGCUCAACACAGCGUGGCAAAGUGGCUGUGGCUAGACUGCCUCACUGGAUUCCCCGUCACUCAGCGGGGCAUCUCUGAGAGAAAUGCC [U102A U112C A124G]	2.81
UACGUAGGUGGUUUUCCCCUGAUAGUGCUAAGGGGGCCUGGAAGUUUGGACUGGGCAGAGCUCAACACAGCGUGGCAAAGUGGCUGUGGCUAGACUGCUUCUCUGGAUUCCUCGCCACUCAGCAGGGCAUCUCUGAGGGAAAUGCC [C99U U115C A138G]	1.12
UACGUAGGUGGUUUUCCCCUGAUAGUGCUAAGGGGGCCUGGAAGUUUGGACUGGGCAGAGCUCAACACAGCGUGGCAAAGUGGCUGUGGCUAGACUGCCCCUCUGGAUUCCUCGUCACUCUGCAGGGCAUCUCUGAGGGAAAUGCC [U100C A121U A138G]	2.13
UACGUAGGUGGUUUUCCCCUGAUAGUGCUAAGGGGGCCUGGAAGUUUGGACUGGGCAGAGCUCAACACAGCGUGGCAAAGUGGCUGUGGCUAGACCGCCUCUCUGGAUUCCUCGCCACUCAGCAGGGCACCUCUGAGAGAAAUGCC [U96C U115C U130C]	0
UACGUAGGUGGUUUUCCCCUGAUAGUGCUAAGGGGGCCUGGAAGUUUGGACUGGGCAGAGCUCAACACAGCGUGGCAAAGUGGCUGUGGCUAGACUGCCCCUCUGGAUUACUCGUCACUCAGCAGGGCAUCUCUGAGAGAAACGCC [U100C C110A U143C]	2.21
UACGUAGGUGGUUUUCCCCUGAUAGUGCUAAGGGGGCCUGGAAGUUUGGACUGGGCAGAGCUCAACACAGCGUGGCAAAGUGGCUGUGGCUAGACUGCCUCACGGGAUUCCCCGUAACUCAGCAGGGCAUCUCUGAGAGAAACGCC [U102A U104G U112C C116A U143C]	1.62
UACGUAGGUGGUUUUCCCCUGAUAGUGCUAAGGGGGCCUGGAAGUUUGGACUGGGCAGAGCUCAACACAGCGUGGCAAAGUGGCUGUGGCUAGACCGCCUCUCUGGAUUCCUCGUCACUCAGCAGGGCACCUCAGAGAGAAAUGCC [U96C U130C U134A]	0
UACGUAGGUGGUUUUCCCCUGAUAGUGCUAAGGGGGCCUGGAAGUUUGGACUGGGCAGAGCUCAACACAGCGUGGCAAAGUGGCUGUGGCUAGACCGCCUCUCUGGAUUCCUCGUCACUCAGCAGGGCAUCCCUGAGGGAAAUGCC [U96C U132C A138G]	0
UACGUAGGUGGUUUUCCCCUGAUAGUGCUAAGGGGGCCUGGAAGUUUGGACUGGGCAGAGCUCAACACAGCGUGGCAAAGUGGCUGUGGCUAGACUGCCCCUCUGGAUUCCUCGUCACUCAGCAGGGCAUCUCCGAGAGAAAUGCU [U100C U134C C146U]	2.44
UACGUAGGUGGUUUUCCCCUGAUAGUGCUAAGGGGGCCUGGAAGUUUGGACUGGGCAGAGCUCAACACAGCGUGGCAAAGUGGCUGUGGCUAGACUGCCCCUCUGGAUCCCCCGUCACUCAGCAGGGCAUCUCCGAGAGAAAUGCC [U100C U109C U112C U134C]	1.02
UACGUAGGUGGUUUUCCCCUGAUAGUGCUAAGGGGGCCUGGAAGUUUGGACUGGGCAGAGCUCAACACAGCGUGGCAAAGUGGCUGUGGCUAGACUGCCUAUCUGGUUUCCUCGUCACACAGCAGGGCAUCUCUGAGAGAAAUGCC [C101A A107U U119A]	1.22
